Experimental findings from PubChem BioAssay AID488969 (Vanderbilt High Throughput Screening Facility, 2010) are described below.

Over roughly 110,000 compounds, “z-score” has its median near -0.1; the highest 2% begin near 2. Some of the results follow. The source made the active and inactive calls.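 How the source made its calls: active means z-score in the third read window above 3 or below -3; inactive means the rest.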

This test deals with Metabotropic glutamate receptor 8 (Rattus norvegicus) (UniProt P70579). The test can be described thus: rat mGluR8 modulators via GIRK flux, primary screen, cell-based, thallium flux, HTS (AID 488969). The following applies: HEK293 rat mGluR8, GIRK (G protein-gated inwardly rectifying potassium channel) thallium flux, FluoZin2; at 10 µM; stronger effect = higher value; submaximal glutamate (EC20) added with thallium.
Chain of UniProt P70579 (P70579 whole entry, looked up): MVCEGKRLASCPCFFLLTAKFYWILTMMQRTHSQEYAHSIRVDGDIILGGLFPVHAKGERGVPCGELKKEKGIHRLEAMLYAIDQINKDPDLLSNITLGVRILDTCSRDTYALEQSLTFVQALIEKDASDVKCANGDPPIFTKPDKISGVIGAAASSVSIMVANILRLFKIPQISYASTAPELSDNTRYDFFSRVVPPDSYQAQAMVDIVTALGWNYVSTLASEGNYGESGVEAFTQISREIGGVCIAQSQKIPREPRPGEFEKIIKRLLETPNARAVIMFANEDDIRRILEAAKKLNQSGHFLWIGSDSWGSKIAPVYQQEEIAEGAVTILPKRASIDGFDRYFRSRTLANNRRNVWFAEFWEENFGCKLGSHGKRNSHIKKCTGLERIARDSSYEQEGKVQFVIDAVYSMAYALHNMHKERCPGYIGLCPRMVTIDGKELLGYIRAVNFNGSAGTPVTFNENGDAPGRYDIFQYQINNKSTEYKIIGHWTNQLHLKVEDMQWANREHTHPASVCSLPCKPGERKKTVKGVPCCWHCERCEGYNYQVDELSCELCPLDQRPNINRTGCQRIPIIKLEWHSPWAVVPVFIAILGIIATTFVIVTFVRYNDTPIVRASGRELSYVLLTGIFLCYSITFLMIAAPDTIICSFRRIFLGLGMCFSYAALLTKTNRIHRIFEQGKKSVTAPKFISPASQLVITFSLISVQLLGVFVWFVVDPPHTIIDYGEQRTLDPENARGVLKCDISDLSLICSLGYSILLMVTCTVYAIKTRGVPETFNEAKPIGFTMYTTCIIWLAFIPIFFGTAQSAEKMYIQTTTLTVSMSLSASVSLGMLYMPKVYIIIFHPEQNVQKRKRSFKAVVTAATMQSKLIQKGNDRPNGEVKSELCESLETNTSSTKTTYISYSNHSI
In the case of `COc1cccc(NC(=O)NCCCN2CCN(c3ccc(F)cc3)CC2)c1`, the z-score is -0.617.
As to `O=C(NCCN1CCOCC1)c1cc(-c2ccc(F)cc2)on1`, the z-score was -0.134.
With `COc1ccc(-c2noc(CCC(=O)NC3CCN(Cc4ccccc4)CC3)n2)cc1` the figure was 0.924.
Consider `Cc1ccccc1C(=O)c1c[nH]c(C(=O)NCCCn2ccnc2)c1`, for which the z-score was -0.531.
With `CC(=O)c1c(C)[nH]c(C(=O)COC(=O)CNS(=O)(=O)c2ccccc2)c1C` the figure was -0.187; with `O=C(Nc1ccc2c(c1)OCCO2)c1ccncc1`, 0.327; with `O=C(Nc1ccc(-c2nc3ccccc3s2)cc1)c1cc(-n2cnnc2)ccc1Cl`, -0.25.
The same measure for `COCCn1c(SCC(=O)Nc2cc(Cl)ccc2OC)nc2c(c1=O)SC(C)C2` (stereo unspecified): -1.28.
With `C=CCOc1cccc(C2/C(=C(/O)c3ccccc3)C(=O)C(=O)N2CCN2CCOCC2)c1` (stereo unspecified), the z-score is -0.193.
With `CCCn1c(=O)c2ccccc2n2c(SCc3nc4ccccc4s3)nnc12` the figure was active: -5.06; with `CN(C)c1ccc(NC(=O)CSc2nnc(-c3cccs3)n2Cc2ccco2)cc1`, -0.433; with `O=C(N/N=C/c1cc2c(cc1Cl)OCO2)c1ccccn1`, -0.14.
Consider `CC(C)CC1NC(=O)N(CC(=O)N2CCN(S(=O)(=O)c3ccc4ccccc4c3)CC2)C1=O` (stereo unspecified), for which the z-score was 0.0525.
In turn, `Cn1c(SCC(=O)Nc2nccs2)nnc1-c1ccco1` had a z-score of -0.369.
The same measure for `O=C(O)CCC(=O)Nc1ccc(N2CCCCCC2)cc1`: 0.291; for `c1ccc(Nc2nc(N3CCOCC3)c3ccccc3n2)cc1`: -0.226.
The same measure for `COc1ccc(CCNC(=S)Nc2cccc3ccccc23)cc1`: -1.46; for `CC(C)NC(=S)NN(c1ccccc1)c1ccccc1`: 2.38; for `COc1ccccc1OCC(=O)OC/C(O)=C(\C#N)c1nc2ccccc2[nH]1`: -0.615.
The same measure for `CC(C)OCC(O)CCc1n[nH]c(=S)n1-c1ccccc1` (stereo unspecified): -0.224; for `Cc1nn2c(N3CCN(C(=O)c4ccco4)CC3)cc(C(C)(C)C)nc2c1-c1ccc(Cl)cc1`: -0.119.
Consider `S=c1[nH]nc(-c2ccc(Br)cc2)n1Cc1ccco1`, for which the z-score came to 2.41.
`O=C(CC1CCCCC1)N1CCN(c2ccccn2)CC1` yielded a z-score of -0.15.
`CC1CCN(C(=O)CCCNC(=O)Cn2cnc3sc4c(c3c2=O)CCCC4)CC1` had a z-score of 0.0698.
On to `O=C(COC(=O)C1(c2ccccc2F)CCCC1)NCc1ccc2c(c1)OCO2`, for which the z-score was -0.629.
The same measure for `C=CCSc1nc(-c2ccccc2)c2cc(Cl)ccc2n1`: -0.223; for `CC(C)(C)n1nnnc1C(c1cccc(C#N)c1)N1CCN2CCCC2C1` (stereo unspecified): 0.0936; for `O=C1CCCc2sccc2N1`: -0.164.
The same measure for `COc1ccc(S(=O)(=O)N(C)CC(=O)NC2CCCCC2)cc1Cl`: 0.239.
In the case of `COc1ccccc1C(=O)n1nc(-c2ccc(Cl)cc2)nc1N`, the z-score was -0.0501.
Compound `O=C1CC(c2ccccc2)Sc2ccccc2N1` (stereo unspecified) came in with a z-score of -0.216.
With `COCCN(C(=O)Cc1cccs1)C(C(=O)NCc1ccc(OC)cc1)c1ccc(OC)cc1` (stereo unspecified) the figure was -0.202; with `c1ccc(Cn2c(Sc3nnnn3-c3ccccc3)nnc2-c2ccccc2)cc1`, 0.223.
`O=C1CC(Nc2ccc(N3CCOCC3)cc2)C(=O)N1c1ccccc1` (stereo unspecified) returned a z-score of -0.264.
With `CC(C)=C1SC(N2CCN(c3cccc(C)c3)CC2)=NC1=O` the figure was -0.16; with `CC(=O)Nc1ccc(NC(=S)NC(=O)c2ccc([N+](=O)[O-])c(C)c2)cc1`, -0.0487; with `Cc1nc2cc(Cl)ccc2n1CCO`, 0.0368.
The same measure for `CCOc1cc(-c2cc(-c3ccc(C)o3)nc(N)c2C#N)ccc1O`: -0.365; for `O=S(Cc1ccc(Br)cc1)Cc1nnc(SCc2ccc(Cl)cc2)n1-c1ccccc1` (stereo unspecified): 0.0364; for `CCCN1C(=O)c2ccccc2NC1c1ccc(OC)cc1O` (stereo unspecified): -1.57.
The same measure for `C1=C(CCNCC2CCCCC2)CCCC1`: 1.98.
Consider `COc1cccc2c(=O)n(CC(=O)N3CCCCCC3)ccc12`, for which the z-score was -0.0875.
Compound `CC(=O)O/N=C/c1c(N2CCOCC2)n(C)c2ccccc12` yielded a z-score of 0.378.
The same measure for `CCc1ccccc1OCC(=O)Nc1ccc(S(N)(=O)=O)cc1`: -0.00663; for `CCCC(=O)Nc1nnc(SCC(=O)NCc2ccco2)s1`: -0.312.
The compound `CCC(Oc1ccccc1)C(=O)Nc1ccccc1OC` (stereo unspecified) registered a z-score of -0.424.
The same measure for `CCOc1ccccc1NC1=CC(=O)CC(c2ccccc2)C1` (stereo unspecified): -0.395.
With `O=C(c1ccccc1-c1nc(-c2ccccc2)no1)N1CCOCC1` the figure was 0.0291; with `Cc1cccc(N2CCN(C(=O)CCc3nc4ccccc4[nH]3)CC2C)c1` (stereo unspecified), 0.487; with `CCOC(=O)CSc1nnc(-c2cccnc2)o1`, -0.323.
With `CSc1ccc(N2CCN(CCCNC(=O)Nc3ccccc3F)CC2)cc1` the figure was 0.699; with `CS(=O)(=O)N1CCCC(C(=O)NCCc2ccccc2)C1` (stereo unspecified), -0.114.
`O=S(=O)(c1ccc2c(c1)OCCO2)N1CCN(c2nc3ccccc3s2)CC1`: the z-score is -0.556.
With `O=C(CSc1nnc(-c2csc3c2CCCC3)o1)Nc1ccccc1` the figure was 0.0102; with `COc1ccc(-c2nnc(CSc3nc4ccccc4c(=O)n3C)o2)cc1OC`, -1.62; with `Cc1cc(=O)n2c3ccccc3n(CC(O)CN3CCCC3)c2c1C#N` (stereo unspecified), -0.164.
The same measure for `O=C(CNS(=O)(=O)c1ccc(C(=O)N2CCOCC2)cc1)N1CCOCC1`: 0.12; for `Cc1ccc(/C=C(/C#N)C(=O)NC(=O)Oc2ccccc2)cc1`: -0.159; for `S=C(NC1CCCCC1)N1CCN(Cc2ccccc2)CC1`: -0.255.
With `CC(C)(C)C1(c2ccccc2)NC(=O)N(CC(=O)N2CCOCC2)C1=O` (stereo unspecified) the figure was -0.13; with `COc1ccc(S(=O)(=O)N2Cc3ccccc3CC2C(=O)O)cc1` (stereo unspecified), -0.0326.
`CC(C)CCNC(=O)Cn1c(=O)oc2cc(S(=O)(=O)N3CC(C)CC(C)C3)ccc21` (stereo unspecified) yielded a z-score of -0.287.
The same measure for `CC(=O)NC1CC2CCCC(C1)N2CC(=O)N1CCCc2ccccc21` (stereo unspecified): 0.214; for `Cn1c(=O)n(-c2cccc(Cl)c2)c(=O)n1C`: -0.242.
With `NC(=S)N/N=C\c1ccc(-c2cccc(Cl)c2Cl)o1` the figure was -0.413; with `C=CCSc1nc2ccccc2n1S(=O)(=O)c1ccc(Cl)cc1`, -0.0721.
With `COc1cc(/C=C2\SC(=S)N(Nc3ccccc3)C2=O)cc(OC)c1OC` the figure was -0.0485.
Compound `Cc1ccc(CNC(=O)C2CCN(S(=O)(=O)c3c(C)noc3C)CC2)cc1` came in with a z-score of 0.615.
As for `CCCCCC(=O)N1CCN(CCN=CC2=C(O)CC(c3ccco3)CC2=O)CC1` (stereo unspecified), the z-score was -0.0293.
With `CCc1cc(=O)oc2c(C)c(O)c(CN3CCCCC3)cc12` the figure was 1.3.
As to `CCNC(=S)NNC(=O)c1cccn(Cc2ccc(Cl)cc2Cl)c1=O`, the z-score was -0.0504.
As for `O=[N+]([O-])c1ccc(CSc2nc3ccccc3[nH]2)cc1`, the z-score was -0.23.
With `CC(=O)Nc1ccc(N2C(=O)CC(N3CCN(Cc4ccc5c(c4)OCO5)CC3)C2=O)cc1` (stereo unspecified), the z-score worked out at 0.0868.
The same measure for `CCC(=O)Nc1cc(OC)c(NC(=O)c2ccccc2)cc1OC`: 0.0667; for `Cc1cccc(OCCCC(=O)O)c1C`: 1.14; for `COc1ccccc1CC(=O)Nc1ccc(O)cc1C(=O)O`: 0.65.
Compound `O=C(/C=C/c1cccs1)Nc1nc(-c2ccccc2)cs1` returned a z-score of -1.32.
The compound `COc1ccc(C(=O)NCc2ccccc2)cc1Br` registered a z-score of -0.234.
Consider `O=C(O)c1ccc(-n2nnnc2Oc2ccccc2C(=O)N2CCOCC2)cc1`, for which the z-score was -0.285.
With `Cc1cccc(NC(=S)N2CCC(C(=O)c3ccc(F)cc3)CC2)c1C` the figure was active: 5.76.
With `CCOC(=O)c1cc(OC(=O)c2cccc([N+](=O)[O-])c2)n(-c2ccccc2)n1` the figure was -0.0578; with `CC1=C(C#N)C(c2ccoc2)C(C(=O)OCc2ccccc2)=C(N)S1` (stereo unspecified), -0.776.
On to `Cc1ccccc1C(=O)NNC(=O)c1cc(N)cc([N+](=O)[O-])c1`, for which the z-score was -0.0123.
Turning to `O=C(Nc1cnn(Cc2ccccc2)c1)c1nc2ncccn2n1`, the z-score is -0.222.
With `Clc1ccc(/C=N/Nc2nc(Cl)nc3ccccc23)cc1` the figure was 2.24; with `CCCCNCc1cc(OCC)c(OCC(N)=O)cc1Br`, 0.733; with `COc1ccc(NC(=O)C2CC(=O)N(c3cc(C)ccc3C)C2)cc1` (stereo unspecified), -0.107.
The same measure for `O=C(Cc1ccc(-n2c(=O)c3ccccc3n(Cc3ccccc3F)c2=O)cc1)NCC1CCCO1` (stereo unspecified): -0.549.
As to `O=C(Nc1ccccc1C(=O)NCCCn1ccnc1)c1ccccc1`, the z-score turned out to be 1.54.
With `CCNC(=O)CN(C1CCCCC1)S(C)(=O)=O` the figure was 0.778; with `Cc1ccc2cccc(S(=O)(=O)Nc3c(C)n(C)n(-c4ccccc4)c3=O)c2n1`, -0.0715.
With `Cc1cc(C(F)(F)F)nc(SCC(=O)c2cccc([N+](=O)[O-])c2)n1` the figure was -0.0876; with `COc1ccc(NCc2ccc(OC)c(OC)c2)cc1`, 0.641.
Compound `Cc1ccc(C(=O)N[C@H](C(=O)Nc2cc(Cl)cc(Cl)c2)C(C)C)cc1` showed a z-score of -0.228.
Take `Cc1c(C)n(C(=O)CN2CCC(C)CC2)c2ccccc12`: the z-score was -0.157.
`CC(C)n1cc(-c2ccc(Cl)cc2)cc(C#N)c1=O`: the z-score is -0.0353.
In turn, `Cn1c(=O)[nH]c(Nc2ccc(F)cc2)c([N+](=O)[O-])c1=O` returned a z-score of -0.196.
Take `COc1ccc(COC(=O)Nc2cc3c(C(F)(F)F)nn(C)c3s2)cc1`: the z-score is -0.456.
In turn, `CC(=O)c1cccc(NC(=O)c2ccc(N(Cc3ccc(C)cc3)S(C)(=O)=O)cc2)c1` had a z-score of -0.0293.
The same measure for `O=C(CSc1ccccn1)N/N=C/c1ccccc1[N+](=O)[O-]`: -0.375.
Take `C=CCn1c(SCCOc2ccc(OC)cc2)nnc1C(C)NC(=O)Cc1ccc(OC)cc1` (stereo unspecified): the z-score is -0.528.
With `c1ccc(-c2nnc(CSc3nnc(-c4ccncc4)n3Cc3ccco3)o2)cc1` the figure was -0.127.
The same measure for `O=C(NC1CCCCCC1)C1C2C=CC3(CN(Cc4cccnc4)C(=O)C13)O2` (stereo unspecified): 0.211; for `COc1ccc2c(c1)c1ccccc1n2C`: -0.77.
The same measure for `CCOC(=O)c1ccc2nc(Nc3nc4ccc(F)cc4s3)sc2c1`: 0.363; for `CCOc1cc(NC(=O)C2CCCO2)c(OCC)cc1NC(C)=O` (stereo unspecified): 0.115.
On to `CCOC(=O)N1CCN(C(=O)Cc2ccc(-n3c(=S)[nH]c4ccccc4c3=O)cc2)CC1`, for which the z-score was -0.69.
Consider `COc1ccc(NS(=O)(=O)c2ccc(NC(=O)c3ccc(N(C)S(C)(=O)=O)cc3)cc2)c(OC)c1`, for which the z-score is -0.141.
With `CCOC(=O)c1cccc(NC(=O)c2ccc(N(C)C)cc2)c1` the figure was -1.1.
In the case of `CN(C)S(=O)(=O)c1ccc(/C(O)=C2/C(=O)C(=O)N(Cc3cccnc3)C2c2ccncc2)cc1` (stereo unspecified), the z-score amounted to 0.122.
With `CCOC(=O)c1sc2ccccc2c1OC(=O)c1ccccc1OC` the figure was -0.0231.
